Experimental findings from PubChem BioAssay AID485344 (National Center for Advancing Translational Sciences (NCATS), 2010) are described below.

By inhibition is commonly meant the drop in the measured response relative to a control, in per cent.

Out of some 340,000 compounds screened, about 6,900 (2%) were called active. No stated cut-off is given here; in the data, active means inhibition above about 30%; inactive means below that, where a call was filed. Only a part is listed here, and it is no random draw. Where no call is shown, the source filed none.

Chain of UniProt P14416 (P14416 whole entry, looked up): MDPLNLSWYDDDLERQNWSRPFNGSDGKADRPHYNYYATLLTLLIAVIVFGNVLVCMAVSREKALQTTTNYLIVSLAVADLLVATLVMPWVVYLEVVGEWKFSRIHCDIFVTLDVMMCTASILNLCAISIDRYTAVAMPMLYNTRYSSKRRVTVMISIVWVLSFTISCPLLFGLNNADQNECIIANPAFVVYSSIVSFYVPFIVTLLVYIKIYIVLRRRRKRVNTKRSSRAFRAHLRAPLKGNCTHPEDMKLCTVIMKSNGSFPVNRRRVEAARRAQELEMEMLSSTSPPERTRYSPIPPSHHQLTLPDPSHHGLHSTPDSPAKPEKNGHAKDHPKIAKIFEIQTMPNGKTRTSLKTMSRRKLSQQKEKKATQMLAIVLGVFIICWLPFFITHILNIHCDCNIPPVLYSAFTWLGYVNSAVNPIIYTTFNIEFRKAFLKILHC

In this assay the target is D(2) dopamine receptor (Homo sapiens) (UniProt P14416). Nature of the assay: HTS Assay for Allosteric Antagonists of the Human D2 Dopamine Receptor: Primary Screen for Antagonists. Further: 0% is about no effect. Particulars: HEK293 TREx D2 cells, calcium flux, dopamine EC80; at 10 µM; stronger effect = higher value. In short, it runs like this:
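Read-out: kinetic calcium fluorescence (1 cycle/s) in inducible HEK293 T-REx D2 cells after an EC80 dopamine addition that followed 180 s compound preincubation. Loss of the dopamine response indicates antagonism.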
With `O=C(Nc1ccccc1F)c1oc2ccccc2c1NC(=O)C12CC3CC(CC(C3)C1)C2`, the inhibition is 4.81%.
For the compound `COc1ccc(NC(=O)CSc2n[nH]c(-c3ccccc3)n2)cc1Cl`, the inhibition is -2.29%.
The same measure for `N#C/C(=C\c1ccccc1F)c1nc2ccccc2c(=O)[nH]1`: 11.1%; for `COc1cccc(C(=O)NC2CC3CCCC(C2)N3Cc2ccc(C)cc2)c1` (stereo unspecified): active: 77.3%.
Regarding `Cc1cc(C)cc(NS(=O)(=O)c2ccc3[nH]cc(C(=O)NCc4ccco4)c(=O)c3c2)c1`, the inhibition was -3.84%.
The same measure for `COc1cccc(NC(=O)CCc2nnc3n(CC(C)C)c(=O)c4ccccc4n23)c1`: 6.26%; for `CC(=O)c1ccc(NC(=O)CN2C(=O)CCc3cc(S(=O)(=O)N4CCC(C)CC4)ccc32)cc1`: 0.924%.
Take `CCOC(=O)c1ccccc1NC(=O)c1cnn(-c2ccc(OC)cc2)c1C1CCN(C(=O)OC(C)(C)C)CC1`: the inhibition was found to be 2.87%.
To `O=C(N/C=N/OCc1ccc(Cl)cc1Cl)NOCc1c(Cl)cccc1Cl` belongs active: 30.7%.
For `Cc1ccc2c(c1)c(=O)c1ccccc1n2CCCC(=O)Nc1ccc(Cl)cc1C`, the inhibition was 23.7%.
The same measure for `CCOc1ccc(CNC(=O)c2cnc3c(C)cccn3c2=O)cc1`: 21.4%; for `CCN(C(=O)CSc1nc2ccccc2n1Cc1ccccc1C#N)c1ccccc1`: 11.5%; for `Cc1ccc(-c2nc(S(=O)(=O)c3ccc(C)cc3)c(SCC(=O)c3ccccc3)o2)cc1`: -14.1%.
To `Cc1cccc(C)c1NC(=O)Cn1c(=O)n(Cc2ccccc2Cl)c(=O)c2cccnc21` belongs 21%.
In the case of `COc1ccc(-n2nc(C(=O)Nc3ccc(C)cn3)c3c4ccccc4n(C)c3c2=O)cc1Cl`, the inhibition was -14.6%.
Consider `CCOC(=O)c1ccc(NC(=O)CSc2nnc(-c3ccncc3)n2-c2ccccc2)cc1`, for which the inhibition was -25.2%.
To `Cc1ccc(NC(=O)NC(C)c2c(-n3cccc3)sc(C)c2C)cc1F` (stereo unspecified) belongs -0.856%.
In the case of `COc1cc(NC(=O)C2CCN(c3nnc(C)c4c(C)n(-c5ccccc5)nc34)CC2)cc(OC)c1`, the inhibition is -2.88%.
In the case of `Cc1ccc2c(C)c(C(=O)NCC(c3ccc(Cl)cc3)N3CCOCC3)oc2c1` (stereo unspecified), the inhibition was -1.1%.
`Cc1ccc(-n2c(=O)[nH]c3cc(C(=O)NCCc4ccccc4)ccc3c2=O)cc1`: the inhibition amounted to 8.12%.
Regarding `COCCn1c(SCC(=O)c2c(C)[nH]c3ccccc23)nc2cc(C(=O)NC(C)C)ccc2c1=O`, the inhibition was -4.65%.
To `CCOc1ccc(CCNC(=O)Cn2ccc3cc(S(=O)(=O)N4CCCCC4)ccc32)cc1` belongs 0.493%.
To `COc1cccc(CNC(=O)c2ccc3c(c2)N(Cc2ccc(F)cc2Cl)C(=O)c2ccccc2S3)c1` belongs 23.7%.
To `O=C(Nc1ccccc1F)c1nc(SCc2ccccc2F)ncc1Cl` belongs 1.24%; to `Cc1ccccc1CN1C(=O)c2ccccc2Sc2ccc(C(=O)NCc3ccccc3)cc21`, 0.619%.
With `Cc1ccc(Cl)cc1NC(=O)Nc1cn(CC(C)C)c(=O)c2ccccc12`, the inhibition was -26.4%.
As to `CCCc1nn2c(=O)cc(COC(=O)C3CCCCC3)nc2s1`, the inhibition was 1.48%.
The same measure for `COc1ccc(-c2nn(-c3ccc(F)cc3)c3c2cnc2ccc(F)cc23)cc1OC`: 15.2%.
To `O=C1CN(C(=O)COc2ccccc2)C(c2ccc(F)cc2)c2cc(Br)ccc2N1` (stereo unspecified) belongs 3.75%; to `COC(=O)c1cc2sc(Cl)cc2n1CC(=O)Nc1cc(OC)cc(OC)c1`, 0.811%.
The same measure for `COc1ccc(OCC(=O)Nc2ccc(Cl)c(-c3nc4ncccc4o3)c2)cc1`: 14.3%; for `O=C(NCc1nc2ccccc2n1Cc1ccccc1Cl)c1ccccc1`: -2.27%; for `COC(=O)c1ccccc1NC(=O)c1oc2ccc3c(c2c1C)C(=O)CC(C)(C)O3`: -4.38%.
`Cc1cnc(C(=O)OCC(=O)NC(C)CCc2ccccc2)cn1` (stereo unspecified): the inhibition is active: 34.1%.
To `CN1CCN(C(=O)c2ccccc2NC(=O)c2cccs2)CC1` belongs active: 36.5%; to `COC(=O)c1ccc2c(=O)n3nc(Nc4cc(OC)ccc4OC)sc3nc2c1`, 2.95%; to `Cc1ccc(OCc2nc(C#N)c(NCCc3ccccc3)o2)cc1`, 8.01%.
Turning to `CCCCn1c(CNC(=O)CCC)nc2ccccc21`, the inhibition was active: 33.7%.
On to `Cc1ccccc1NC(=O)CSC1=Nc2ccccc2C2=NC(Cc3ccccc3)C(=O)N12` (stereo unspecified), for which the inhibition worked out at 7.68%.
For `CCC(Sc1ncc(S(=O)(=O)c2ccc(Cl)cc2)c(=O)[nH]1)C(=O)Nc1ccc(OC)cc1` (stereo unspecified), the inhibition was -0.699%.
For `O=C(Nc1cccc(-c2cscn2)c1)C1CCN(Cc2ccsc2)CC1`, the inhibition is active: 48.1%.
`Cc1ccc2[nH]c(=O)c3cc(C(=O)N(CCCOC(C)C)Cc4ccco4)sc3c2c1`: the inhibition worked out at 10.6%.
To `COc1ccc(Cl)cc1NC(=O)CSc1nnc2[nH]c(=O)cc(-c3ccccc3)n12` belongs -0.359%; to `CCc1cccc(NC(=O)c2cc3c(s2)-c2ccccc2OC3)c1`, -0.774%; to `Cc1cc(C)c(NC(=O)C(=O)NCC(c2cccnc2)N2CCN(c3ccccc3F)CC2)c(C)c1` (stereo unspecified), -4.61%.
To `O=C(CN1C(=O)c2cccc3cccc1c23)Nc1cccc(F)c1` belongs -1.56%; to `CC(=O)Nc1cccc(NC(=O)CSc2nccn2C2CCCC2)c1`, -19.6%; to `CN(Cc1ccccc1)c1ccc(-c2nc(-c3ccccc3)no2)cc1[N+](=O)[O-]`, 11.9%.
As for `COc1ccccc1NC(=O)CSc1nc2c(oc3ccccc32)c(=O)n1-c1ccccc1F`, the inhibition was 17.7%.
`CN1C(=O)Cc2cc(S(=O)(=O)CCC(=O)N3CCN(c4ccc(Cl)cc4)CC3)ccc21`: the inhibition came out at 9.16%.
Regarding `Cc1cc2oc(C(=O)N(Cc3ccc(N(C)C)cc3)CC3CCCO3)c(C)c2cc1Cl` (stereo unspecified), the inhibition was -1.29%.
As to `COc1ccc(NC(=O)c2oc3ccccc3c2NC(=O)c2cc(C)cc(C)c2)c(OC)c1`, the inhibition was -11.1%.
Regarding `CN(CC(=O)Nc1ccc(Br)cc1)S(=O)(=O)c1cccc2nsnc12`, the inhibition worked out at 6.99%.
For `COc1ccc(NC(=O)C2CCN(C(=O)c3sc4nc[nH]c(=O)c4c3C)CC2)cc1Cl`, the inhibition came out at 12.5%.
For `CCOc1ccccc1NC(=O)CSc1nccn1Cc1ccc(F)cc1`, the inhibition was -2.72%.
With `O=C(OCC1CCCO1)c1ccc2c(c1)N(Cc1ccccc1F)C(=O)c1ccccc1S2(=O)=O` (stereo unspecified), the inhibition is -2.06%.
The same measure for `Cc1ccccc1C(=O)Nc1ccc(C(=O)OCc2cc(=O)n3c4c(sc3n2)CCCC4)cc1`: 9.72%; for `Cc1ccc(C(=O)Nc2ccc(F)cc2)cc1S(=O)(=O)N1CCOCC1`: -5.9%; for `Cc1cccc(CNC(=O)c2cnc3sc(N4CCOCC4)nn3c2=O)c1`: 5.77%.
Consider `CCOc1cccc(CN2CCCC(N3CCN(c4cccc(Cl)c4)CC3)C2)c1O` (stereo unspecified), for which the inhibition is active: 36.6%.
The same measure for `Cc1nn(CC(=O)NCc2ccccc2Br)c(=O)c2cc3occc3n12`: 1.01%.
